Where “and” joins values, the source holds several entries; their conditions need not be identical. Identical values can stand only once. Among all 360,000 compounds or so, about 7,500 (2.1%) were called active. This list was built around the results that the source calls inconclusive (neither active nor inactive); the mix of calls is not that of the screen. The call rests on the fitted dose curve; in most records, active means well fitted cell-killing curve with a large enough effect; inconclusive means small, poorly fitted or top-dose-only effect, or effect the other way, or another doubt; inactive means no such curve, though single readings can be large or run the other way. No potency is given beside an inconclusive call; the fits are too rough. More than one record can exist for a structure, and the calls need not agree.
Assay: qHTS for induction of synthetic lethality in tumor cells producing 2HG: qHTS for the HT-1080-IDH1KD cell line;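 on activity, negative = toxicity: 0% = DMSO wells and -100% = cell-free medium wells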
Settings: HT-1080 IDH1 knockdown viability, ATP luminescence, 48 h; activity, negative = toxicity: at 46.1 µM (top of the series) unless noted
Method in brief: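 After a 2 h attachment period, IDH1KD HT-1080 cells took pin-transferred compound for 48 h at 37 °C; ATP-based luminescence after 10 min room-temperature reagent incubation reported viability.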
Potency means the concentration at half of the fitted maximal effect; tags describe the fitted curve by direction and shape.

Compound | Potency | activity, negative = toxicity
Cn1nccc1C(=O)NC1CCCc2c1cnn2-c1ccc(C(C)(C)C)cc1 (stereo not drawn) | active: 1.3 µM | –
COc1cc(OC)cc(-c2c(Sc3ccccc3)c3cc(-c4ccc(OC)nc4)ccc3n2C)c1 | inconclusive [cytotoxic, partial curve] | –
CS(=O)(=O)c1ccc(C(=O)OCC(=O)NC(=O)C2CCCCC2)cc1[N+](=O)[O-] | – | inconclusive: -23.2% [cytotoxic]
CC1(C)NC(=O)N(CC(=O)OCC(=O)c2ccc(F)cc2)C1=O | – | inactive: 8.16%
CCN(CC)CC(=O)c1ccc(-c2ccccc2)cc1 | inconclusive [cytotoxic, single point] | –
NC(N)=NC(=O)c1nc(Cl)c(N2CCCCCC2)nc1N | inconclusive [cytotoxic, partial curve] | –
CN1CCN(c2ccc([N+](=O)[O-])cc2C(=O)c2ccc(Cl)cc2)CC1 | active: 5.17 µM | –
O=C(CN1CCN(Cc2ccccc2)CC1)Nc1ccc([N+](=O)[O-])cc1C(=O)Nc1ccccc1F | active: 20.6 µM | –
OC(CSc1nnnn1-c1ccccc1)Cn1c2ccccc2c2ccccc21 (stereo not drawn) | inconclusive [cytotoxic, partial curve] | –
CCOP(=O)(OCC)C(C#N)=C1SCN(c2ccccc2)CS1 | – | inactive: -0.885%
O=C(c1ccccc1)c1sc(Nc2ccc3c(c2)OCO3)nc1-c1ccccc1 | inconclusive [cytotoxic, single point] | –
CN1CCN(c2ccc(CNC(=O)c3cccc4c(-c5ccc(F)c(F)c5)coc34)cc2)CC1 | inconclusive [cytotoxic, single point] | –
O=C(COc1ncnc2ccc(Br)cc12)NCc1ccco1 | inconclusive [cytotoxic, single point] | –
CC1CCCCN1CCNC(=O)c1ccc2c(=O)n(Cc3ccc(Cl)cc3)c(=S)[nH]c2c1 (stereo not drawn) | active: 23.1 µM | –
COc1ccccc1-n1nnnc1SCC(=O)N(C)C1CCS(=O)(=O)C1 (stereo not drawn) | – | inactive: 3.95%
CCC[C@@H](CN1CCC[C@H]1CN1C(N)=NC[C@@H]1Cc1ccccc1)N1C[C@@H]([C@H](C)CC)N(CCCC2CCCC2)C1=N | inconclusive [cytotoxic, single point] | –
COc1cc(OC)cc(C(=O)NNC(=O)CCC(=O)c2cc(C)sc2C)c1 | – | inactive: 15.7%
O=C(Nc1ccc(NC(=O)c2cc3ccccc3o2)cc1)c1ccco1 | – | inactive: -29.2%
C/C(=N/NC(=O)Cc1cccc2ccccc12)c1cccs1 | – | inactive: 1.57%
Cc1nc2c(C)cccc2cc1C(=O)N/N=C/c1cccc([N+](=O)[O-])c1 | inconclusive [cytotoxic, single point] | –
CCn1nc(NC(=O)C2CCCO2)c2cc3cc(C)ccc3nc21 (stereo not drawn) | – | inactive: -10.2%
CCOC(=O)c1cnc(SSc2ncc(C(=O)OCC)c(N)n2)nc1N | – | inactive: -4.03%
O=C(COc1ccccc1/C=C1\SC(=S)NC1=O)Nc1ccc(F)cc1 | inconclusive [cytotoxic, partial curve] | –
COc1ccc(-c2nc3ccc(Br)cn3c2Cc2ccc(C)cc2)cc1OC | inconclusive [cytotoxic, single point] | –
CC1=C(C#N)C(C)C2=C(CC(C)(C)CC2=O)N1 (stereo not drawn) | – | inactive: 2.67%

Compound | Potency | activity, negative = toxicity
CCOc1ccc2nc(S(=O)(=O)NC(=O)C3(C)CCN3C(=O)CCc3cccs3)sc2c1 (stereo not drawn) | inconclusive [rising, partial curve] | –
CCN(CC)C(=O)[C@H]1CC(CC(=O)NCCCN(C)C)C(=O)N2CCc3c([nH]c4ccccc34)[C@]12C (stereo partly drawn) | – | inactive: 6.07%
CC(=O)Nc1ccc2c(c1)Cc1cc(N3C(=O)C=CC3=O)ccc1-2 | inconclusive [cytotoxic, single point] | –
Cc1nc2ccccc2c(=O)n1NC(=O)Nc1ccccc1 | inconclusive [rising, single point] | –
OC1CCCN(Cc2ccc3ccc4cccc5ccc2c3c45)C1 (stereo not drawn) | inconclusive [cytotoxic, single point] | –
C=CCc1cccc(/C=N/NC(=O)C(C)Nc2cccc(C)c2)c1O (stereo not drawn) | inconclusive [cytotoxic, partial curve] | –
C=CC(=O)Nc1cccc(N(C)c2ccnc(Nc3ccc(N4CCN(C)CC4)cc3)n2)c1 | inconclusive [cytotoxic, single point] | –
CC(C)(C)C(=O)COc1ccccc1[N+](=O)[O-] | – | inactive: -0.0357%
CSc1nc2ccccc2c(=O)n1C1CCOC(C)(C)C1 (stereo not drawn) | – | inactive: -1.77%
COc1ccc(/C=C2\COc3ccccc3C2=O)c(OC)c1 | inconclusive [cytotoxic, partial curve] | –
O=c1[nH]c2ccccc2cc1-c1nnn(-c2ccc(F)cc2)n1 | – | inactive: -9.83%
CCCCc1ccc(NC(=S)NCC2CCCO2)cc1 (stereo not drawn) | inconclusive [cytotoxic, single point] | –
Cn1nnc(NC(=S)NC(=O)c2cc(Cl)ccc2Cl)n1 | – | inactive: -0.199%
O=C(C1CC=CCC1)N1CCN(S(=O)(=O)c2ccc(F)cc2)CC1 (stereo not drawn) | – | inactive: 3.62%
CC(=O)NC(CC(=O)OCC(=O)Nc1ccc2c(c1)OCO2)c1ccccc1 (stereo not drawn) | – | inactive: 6.47%
CCOc1ccc(Oc2ccccc2NC(=O)CSCC(=O)Nc2cc(C)on2)cc1 | inconclusive [cytotoxic, partial curve] | –
O=P(O)(O)c1ccccc1OCCOCCOCCOCCOc1ccccc1P(=O)(O)O | – | inactive: 0.305%
Cc1cccc(C)c1NC(=O)C(c1ccccc1OC(F)(F)F)N1CCC(c2ccccc2)CC1 (stereo not drawn) | inconclusive [cytotoxic, single point] | –
O=C(O)CCN1C(=O)/C(=C\c2cccc(OCC(=O)Nc3ccc(Cl)cc3)c2)SC1=S | inconclusive [cytotoxic, partial curve, poor fit] | –
CCOC(=O)N1CCC(NC(=O)c2ccc3c(c2)N=C(CC)c2cc(C)ccc2S3)CC1 | active: 5.8 µM | –
Cn1nc(C(C)(C)C)cc1N1C(=O)CCC1(C)C(=O)NCc1ccccc1 (stereo not drawn) | – | inactive: 20.6%
O=[N+]([O-])c1ccc(Cl)cc1NCc1cccnc1 | inconclusive [cytotoxic, single point] | –
Cc1cccc(C)c1NC(=O)COc1ccccc1C(=O)Nc1ccc(Br)cn1 | – | inconclusive: -22% [cytotoxic]
Cc1ccc(C(=O)Cn2c(C(=O)OCCO)cc3ccccc32)cc1 | inconclusive [cytotoxic, partial curve] | –
CN1C=Nc2c(ncn2C2CCC(CO)O2)C1O (stereo not drawn) | – | inactive: 19.3%

Compound | Potency | activity, negative = toxicity
COc1ccc(NC(=O)CSc2ncc(-c3ccc(F)cc3)n2Cc2ccco2)cc1 | inconclusive [cytotoxic, single point] | –
COc1cccc(NC(=O)CN(C)C(=O)/C=C/c2ccc(S(=O)(=O)N3CCCCCC3)cc2)c1 | inconclusive [cytotoxic, single point] | –
CC(C)(C)C(=O)OCc1nc(-c2ccc(O)c(O)c2)cs1 | inconclusive [cytotoxic, single point] | –
CCc1sc(C(=O)Nc2nc(C)cs2)cc1C | inconclusive [cytotoxic, partial curve] | –
COc1ccc(-c2oc3ccccc3c(=O)c2OC(C)=O)cc1 | inconclusive [cytotoxic, single point] | –
COc1ccc(-c2csc(C(O)c3cccc(OC)c3)n2)cc1 (stereo not drawn) | inconclusive [cytotoxic, single point] | –
COc1cccc(-n2cnc3scc(-c4cccs4)c3c2=O)c1 | – | inactive: 2.99% [at 9.24 µM]
COc1ccc(OC)c(N=Nc2c(O)c3ccccc3[nH]c2=O)c1 | inconclusive [cytotoxic, partial curve] | –
COc1ccc(/C=C2\CN(Cc3ccccc3)C/C(=C\c3ccc(OC)cc3)C2=O)cc1 | active: 23.1 µM | –
FC(F)Sc1ccc(Nc2ncnc3nc[nH]c23)cc1 | inconclusive [cytotoxic, single point] | –
CC(=O)N1c2ccc(S(=O)(=O)NCc3ccccc3Cl)cc2CC1C (stereo not drawn) | – | inactive: -2.4%
NC(=NCCCCCCN=C(N)/N=C(\N)Nc1ccc(Cl)cc1)/N=C(\N)Nc1ccc(Cl)cc1 | active: 11.6 µM and active: 18.4 µM | –
CCCCCC(=O)Nc1cccc(C2=NOC3(C2)C[C@@H](C(N)=O)N(C(=O)Cc2ccc([N+](=O)[O-])cc2)C3)c1 (stereo partly drawn) | – | inactive: -1.92%
Cc1cc(C)c(S(=O)(=O)NCC2CCC(C(=O)NCCCN3CCC(C)CC3)CC2)c(C)c1 (stereo not drawn) | inconclusive [cytotoxic, single point] | –
O=C(O)c1ccc(-n2ncc3c2/C(=C/c2cccc([N+](=O)[O-])c2)CC3)cc1 | – | inactive: 6.05%
COc1cc2sc3ccc(C#Cc4ccc(N)cc4)cc3c(=O)c2cc1OC | inconclusive [cytotoxic, single point] | –
NS(=O)(=O)c1ccc(NC(=S)N2CCN(Cc3ccc4c(c3)OCO4)CC2)cc1 | – | inactive: -5.21%
COc1cc2cnc(-c3ccccc3)c(-c3cc(OC)c(OC)c(OC)c3)c2cc1OC | inconclusive [cytotoxic, single point] | –
Clc1cccc(Cc2c(-c3ccccc3)nc3c4ccccc4ccn23)c1 | – | inactive: -19%
CC/C(C)=N/Nc1cccc([N+](=O)[O-])c1 | active: 9.2 µM | –
COc1ccc(C(=O)COC(=O)CN2C(=O)c3ccccc3C2=O)c(OC)c1 | – | inactive: 12.3%
CCN(CC(=O)Nc1ccc2c(c1)OCCO2)Cc1nc2cc(Cl)ccc2c(=O)[nH]1 | – | inactive: -9.6%
NC(=O)c1nsc(C(=O)N(c2ccccc2F)C(C(=O)NCc2ccc(F)cc2)c2ccc(O)cc2)c1N (stereo not drawn) | inconclusive [cytotoxic, single point] | –

— PubChem BioAssay AID686971 (National Center for Advancing Translational Sciences (NCATS), 2013)
